No constants are given. Whether binding was seen depends on the method and setting. In cells and extracts the contact can be indirect. Some binding calls cover weakened binding; strength is not graded here. Tags and fused reporters may be left off the sequences shown.
Legend:
[1] = biological target: T1, GST:GPA-15 fusion protein (C. elegans) (UniProt P91907); test: pull-down; GST pull-down: purified GST fusion (5 ul eluted) with 20 ul in-vitro translated DOP-2XL in binding buffer with 0.2% BSA, 6 hrs at 4°C, Magne-GST particles, SDS-PAGE, colorimetric detection of biotinylated lysine; only the target purified
T1 sequence: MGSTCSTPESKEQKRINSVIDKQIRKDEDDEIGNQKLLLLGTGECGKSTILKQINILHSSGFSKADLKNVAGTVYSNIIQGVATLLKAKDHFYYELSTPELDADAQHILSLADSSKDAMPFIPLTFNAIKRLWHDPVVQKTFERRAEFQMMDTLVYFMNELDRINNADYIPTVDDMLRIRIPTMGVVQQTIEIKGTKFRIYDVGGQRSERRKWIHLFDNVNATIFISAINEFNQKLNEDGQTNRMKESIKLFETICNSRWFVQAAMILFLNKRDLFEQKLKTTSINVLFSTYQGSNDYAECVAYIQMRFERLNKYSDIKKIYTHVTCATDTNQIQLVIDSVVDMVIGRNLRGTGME

[2] = biological target: T2, GST:GPA-14 fusion protein (C. elegans) (UniProt Q9BIG2); test: as above
T2 sequence: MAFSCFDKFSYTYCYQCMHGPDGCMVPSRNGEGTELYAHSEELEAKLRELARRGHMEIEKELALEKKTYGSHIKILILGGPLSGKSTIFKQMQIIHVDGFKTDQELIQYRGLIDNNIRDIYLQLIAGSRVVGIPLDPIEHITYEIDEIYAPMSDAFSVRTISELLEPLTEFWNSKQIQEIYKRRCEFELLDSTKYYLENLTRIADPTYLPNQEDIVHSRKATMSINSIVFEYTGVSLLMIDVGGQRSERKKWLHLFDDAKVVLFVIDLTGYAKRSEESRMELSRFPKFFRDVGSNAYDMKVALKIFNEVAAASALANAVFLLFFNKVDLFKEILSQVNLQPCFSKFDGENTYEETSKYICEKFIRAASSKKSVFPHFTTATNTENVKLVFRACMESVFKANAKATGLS

B1: DOP-2XL, in-vitro translated (dop-2c in pIVEX2.3d) (receptor, UniProt E7EM37 1-849)
chain: MEAGETWNVSLEWPPPSLDLSTITQTPSTIVGSGIPLNYAGLSLIVIPLITLLGNLLVIISVLRYRALQSAINFLILGLAVADLLVAIIVMPYAVYVYVTNGDWYLGNLMCDIYMASDVCCSTASILLLAVISFDRYRAVSLPIQYSRQSQNVKRVWTLIAVIWLVSLTLASPMVFGVNVRPPDANPYECRFYNAEFSILSSMISFVIPCFLVLFVYIRIIIALKKREKAAKMRREKNTIAHGLTMRPDTGEEQVDEEAAGRIVAGPVVNVMMAALPSMTRRMRQFERHRRAIELAGDEEWEEDELDVMDECCGGDDAGDDDDDYHADNGQGVVEASAPRTTSMLRRIINAASVGTANSTAQSVASASGMPAFFAQNISTTSPSSSSCARTTTTTSAIPKASGDLPLPMLLNEREFGNSSTPRSSLESLSENVNVITNDFVSENCTTFSRRSSYADDSQPTSSQTSSGDGRSYSIKGQKRFRNLSRNYSTKHHRKVVKVNRGNSRNNSRTASITNQSDDALIPAIIRTISRKSPRLFRRDKTDIKKHSMILANPITEPPKEYRRVSMPIHPTNSQTETETISASRDIENLPTTTISRSTTANSAELLGSPDDFEKFPALITETVLEDVLAETREGCFMQPTVSFALTVREMEGNALNNLKGCSVESSRRVSQVDPPLAIQILTRPSLPHLDLQRMDSIGTTCSSKTRADSLRSVDSKGSKKSNRNGIAVKLVKRAIKHEHSLKRKVSKAQRKEKRATKTLGVVVGVFLVCWVPFFVINILNAVCILLNKDSCQVGYDLFFYCTWIGYMNSFMNPIIYTIFNTEFRRAFKSIIFGRNSTRHHFSNKQAHV
modifications: biotinylated lysine incorporated during translation (biotinylated lysyl-tRNA)
binding [1]: no binding | binding [2]: binds

Source: publication PMC3297496
